Laboratory results: article PMC12136788
The list shows a part of the results.

T1: UNK ZnF1-3 (human, UniProt Q9C0B0 31-174)
T1 sequence: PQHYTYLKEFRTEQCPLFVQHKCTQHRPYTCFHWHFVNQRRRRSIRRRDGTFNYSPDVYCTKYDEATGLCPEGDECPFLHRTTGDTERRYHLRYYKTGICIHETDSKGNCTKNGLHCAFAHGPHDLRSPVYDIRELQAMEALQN

B1: chr18:56819859:56819860:+_ENSG00000166562_ENST00000588875|hu_mus|hu_hu_hu_mus_True|8_68 (ssRNA)
RNA: GGGAGUUCUACAGUCCGACGAUCAACCUUGAUUACUCUGUGAACUAUCGGAAUGUCUCUUCCUUCAACUUUAAAAACAACUAUUUCACCAGCUCUGAUGGGGUCCUCCCGGAAAUUCGUGAGGAACAGGAGGUCUCCUCUGUGCAACAGAGGAUUGAGCAUCA
B2: chr11:75505782:75505783:+_ENSMUSG00000017776_ENSMUST00000017920|mus_mus|motif|central (ssRNA)
RNA: GGGAGUUCUACAGUCCGACGAUCUGCCUCCUCCUGCCUGAGAAUCACUCCACUACCCUGCCUUGAUCUGGCCACUGGUUCGGUCAAUGUUGUAGUGUCCAAAUAGUGUAUUUUGUAGAAUUCCAGUAAAGCAGGCAAUGAAUCCAACAGAGGAUUGAGCAUCA
B3: 130624029_130624149_2639_CDS_ENSMUSG00000030757_ENSMUST00000042470|mouse|control|control (ssRNA)
RNA: GGGAGUUCUACAGUCCGACGAUCUCUCCUCCCCACACAAGGCCUCUGAUGCACCACAGCCUUCCCUGUAUCUCUAGGUUGAGACAUCAGCUUUCCCUGUCUAACUCCUUGAAGGUUUUCACAGUGUCUUCCUGAGAAGUACUCCAACAGAGGAUUGAGCAUCA
B4: chr5:93601047:93601048:+_ENSMUSG00000058013_ENSMUST00000074733|mus_mus|FALSE|FALSE (ssRNA)
RNA: GGGAGUUCUACAGUCCGACGAUCAAUGAGGUGUUCUUUGAGAUCUGGACCCGUGAGAGUGUCCGGGACGCCCUGGUGGGGGUGAACGUAAUCAUGUUUCUCGUGCCAGUCUGUAGCUGUGGCCUGGCUCUGAAGGUAGGCAUUCAACAGAGGAUUGAGCAUCA
B5: chr1:225611761:225611762:-_ENSG00000143815_ENST00000272163|hu_mus|hu_hu_hu_mus_True|38_38 (ssRNA)
RNA: GGGAGUUCUACAGUCCGACGAUCCCAGGCCAUCGGCCUCUGACCACUUCACCCUCAACAAACUUCCUACUUGGCAUUUUCUAAAAUUAGUCUGGCCCAGGUUCCGGGGGAACUCCAGCCACUCCAGGACAGUCACCAGCAGCCCAACAGAGGAUUGAGCAUCA
B6: chr9:75491700:75491701:-_ENSMUSG00000032181_ENSMUST00000034699|mus_mus|FALSE|FALSE (ssRNA)
RNA: GGGAGUUCUACAGUCCGACGAUCGUAGAUGCGUUUGAUGGCGUUGGCUUCUUCCUUGUCGAGGAUGCCCUUCUCCACAUAAGCGUCAGCUUGUUGGUUGAUAAAGUCCCUCAUCUUUGAAAGGUCGUAAUCUUCUUUGUUGCCCAACAGAGGAUUGAGCAUCA
B7: 148129148_148129268_2566_3pUTR_ENSMUSG00000030304_ENSMUST00000136008|mouse|control|control (ssRNA)
RNA: GGGAGUUCUACAGUCCGACGAUCUCCUGUGUCUGGUAGGGACUGAAACUCAGUCUUCUCACUCAAUGACUUAACCUUUAUCUUUCAAAAAGACAGAAUGAAAUGAGGCUGGCACACAUACUCAGCAGUUCCUAGCAGUACCUGCAACAGAGGAUUGAGCAUCA
B8: chr18:34657717:34657718:-_ENSMUSG00000036501_ENSMUST00000040506|mus_mus|FALSE|FALSE (ssRNA)
RNA: GGGAGUUCUACAGUCCGACGAUCUCAUUGUCUGGAUGUCCUCCCUGCUGCAGCUCAUCAAGUGGAAUUCCAAAUAUUUUGCUAGCAAGAUCGGAGUUGCAGUUACUCAAGGAAGGGGAGGAGCUCUUCCUCAUAGCUUUUUUGCAACAGAGGAUUGAGCAUCA
B9: 89559355_89559475_3338_3pUTR_ENSMUSG00000027950_ENSMUST00000029562|mouse|control|control (ssRNA)
RNA: GGGAGUUCUACAGUCCGACGAUCCCCUUGGCACUAGCUGCUCCAGACUUGCAGGUCUCCACAGAGGCAGGGGGCCUGUGGGCCAUCUGCCUAGGCAAAGGCGGCUGCCAGGUUACUGGAGCUUAGUCCCUGAUUCGAGUCCCCCAACAGAGGAUUGAGCAUCA
B10: chr19:8913615:8913616:-_ENSMUSG00000071658_ENSMUST00000096259|mus_hu|mus_mus_mus_hu_False|1_28 (ssRNA)
RNA: GGGAGUUCUACAGUCCGACGAUCAGGGUACCAAAACCUUCUGCCUGAAAUGGGUGCCCCACCCAGUAGGGAGUUGCAGCUGAAAGUAUCUGAUGCAGAAGCAGUGAAUGCAGAGAAGGAGGCCCCUGGGGAGGGCCCGAGAUCCAACAGAGGAUUGAGCAUCA
B11: chr8:30550554:30550555:-_ENSG00000104687_ENST00000414019|hu_hu|motif|central (ssRNA)
RNA: GGGAGUUCUACAGUCCGACGAUCGCCAGCGUUCUCCAGCUCCUCCGUGCAGUUGGUGCUGAUCAUUGAAUCAAAACUUCGGAGUACCUUAUCAUGCCGUAUCAUCAGUGAUGUCUUAGAACCCAGGGCUGACAGGAUCCCUGCCAACAGAGGAUUGAGCAUCA
B12: chr9:116041357:116041358:+_ENSG00000136875_ENST00000374198|hu_mus|FALSE|FALSE (ssRNA)
RNA: GGGAGUUCUACAGUCCGACGAUCUUCUCUUCGUUCAGCAGGGCCCUCUCCAAAAAGCGUGAUAGGCUCUCCCAAGGCUCGAAGGCAAGCCUUGACCUCUGAGUCAUCUGUGGAAACAUUGAUCUGCCGGGCUCGCUUUCUUCUCAACAGAGGAUUGAGCAUCA
B13: chr14:70237991:70237992:+_ENSG00000100650_ENST00000557154|hu_mus|FALSE|FALSE (ssRNA)
RNA: GGGAGUUCUACAGUCCGACGAUCCCUGCUCCUUGAUCGGCUGUAAGACUUGCUCCUUCGUGAACGGGAUCGGCUACGGGACCUAGAGGAACUUCUGGUCCGAGAUCGUGACCUGCUUCUUGACCUGUGCCUUUUGCUGCCUUCCAACAGAGGAUUGAGCAUCA
B14: 196311818_196311938_1409_3pUTR_ENSG00000174013_ENST00000440469|human|control|control (ssRNA)
RNA: GGGAGUUCUACAGUCCGACGAUCUGGGAACUGUAAGCCAAAAAUAAUACAAAAUGAGUCAAUACAACACAUCUCCUCUUAAAAUCCUCUUCUUUGUAGUUAACCCAGUUGUCCCCAAAUGUUAUUCCAAUUUUGUAACCAUGUCAACAGAGGAUUGAGCAUCA
B15: 93572924_93576970_823_CDS_ENSG00000107854_ENST00000371627|human|control|control (ssRNA)
RNA: GGGAGUUCUACAGUCCGACGAUCGGCAGAUGGAUCUGCUAAAUCCAAUGCUGUCCUUCCAUCUGUAUUUCGGAUGGUUGGCUCAGCUCCAUGCUGUAACAGCACAAUGCAAACAUCAAUCUUUCCUUUAAUUGCAGCUUCAUGCAACAGAGGAUUGAGCAUCA
B16: chr4:76721835:76721836:+_ENSG00000138768_ENST00000264904|hu_mus|hu_hu_hu_mus_True|18_18 (ssRNA)
RNA: GGGAGUUCUACAGUCCGACGAUCGUUUGGCUGGGGUUUCUGAGACGCUCUGGAAUAUAACUCAUGUUUGCUAAUAAAUCCUAGUUUCUCUAUGAAAUUCUCUUUGCCAAUCCUCUUUCAAUCAGUUUGCUUUAGUUUCUCUUUCAACAGAGGAUUGAGCAUCA
B17: chr13:43497316:43497317:+_ENSMUSG00000063200_ENSMUST00000071926|mus_hu|FALSE|FALSE (ssRNA)
RNA: GGGAGUUCUACAGUCCGACGAUCCUUCCUCAAAUAGGUUUAUGAUUUUUAUAAUGAUCCUUUAAAAUGAUCUAUGAAUGAUUUAUUAGAUAAAUUCUAUACAUACAAAGUACAGAUUCUUCAUUUAGCAUUGAUUUACUUCUUCAACAGAGGAUUGAGCAUCA
B18: chr12:39756943:39756944:-_ENSG00000139116_ENST00000544797|hu_mus|hu_hu_hu_mus_False|8_8 (ssRNA)
RNA: GGGAGUUCUACAGUCCGACGAUCGGUUUGGCUGUUACCCCCAAGGGAAUCCUGCAAGAGUCUUGUCAGCUUAGAGUCUCUGUAAGGGACAUGGGUGGCUCUCUUGCUCUUGUCCCCCAAGGCGCUGAUUACAUUGCCAAGAGCCAACAGAGGAUUGAGCAUCA
B19: chr12:39752152:39752153:-_ENSG00000139116_ENST00000544797|hu_hu|FALSE|FALSE (ssRNA)
RNA: GGGAGUUCUACAGUCCGACGAUCGUAUUUCAGGGUGUUUAACGUUUCCAUAAAGUCUCUGUCUGAAGGGCUGACACAUGCUAUCAUGAUUGUUUGGCUAUUACCCCCGAGGGAAUCCUGUAGUAGUCUUGUUAGCUUGGAAUCCAACAGAGGAUUGAGCAUCA
B20: chr1:6260860:6260861:+_ENSMUSG00000025907_ENSMUST00000027040|perfect_dup|FALSE|FALSE (ssRNA)
RNA: GGGAGUUCUACAGUCCGACGAUCUGGUUUGAGAUCCAGGGCAGGUAGAGACUCUGAAUGUAGAAAAUAUAAAGUAGGACUAACAGUAAAUAACACAUAAUUGUCAUGGCGUUCGUCUAGGAUGAUGAGUACCAAAUCUCCCACCAACAGAGGAUUGAGCAUCA
B21: chr7:141450121:141450122:+_ENSG00000106028_ENST00000265304|hu_mus|hu_hu_hu_mus_True|68_88 (ssRNA)
RNA: GGGAGUUCUACAGUCCGACGAUCUCAUCCGUUCUAUGCCUUUUCUUUCGUCUGGUCACUCAGAAAUAUAAUAUUAUCAGCUAUGAUUGUUGUUGCUUGCCGCCUCACAUUGUUUUUAUCCAUGUACUCGCCAUAGUCCACUUUCAACAGAGGAUUGAGCAUCA
B22: chr10:33190432:33190433:-_ENSG00000150093_ENST00000302278|hu_mus|hu_hu_hu_mus_True|28_48 (ssRNA)
RNA: GGGAGUUCUACAGUCCGACGAUCUACAUUUUCCAAACCUGCAUGUGAAUAAAACCCUGGCCACAGAGCCCCAAAACUACCCUACUGUGACUAUGGAGCUGCUGCUGUUGCAUUCAGGUUGCAAAAUCCGCCUGAGUAGGAUUCCAACAGAGGAUUGAGCAUCA

Target: T1, UNK ZnF1-3
Test: nsRBNS (natural sequence RNA bind-n-seq); RBNS binding buffer (assumed for nsRBNS): 25 mM Tris pH 7.5, 150 mM KCl, 3 mM MgCl2, 0.01% Triton X-100, 500 ug/ml BSA, 20 U/ml SUPERase-In, 4 C; UNK is unkempt and MSI1 is Musashi-1; names of the RNAs are library labels; protein concentration not given here; high values mean tight binding

Binder | binding signal [enrichment R]
B1 | 0.73
B2 | 0.91
B3 | 0.969
B4 | 0.67
B5 | 1.52
B6 | 0.32
B7 | 1.12
B8 | 0.771
B9 | 0.592
B10 | 1.38
B11 | 0.956
B12 | 0.617
B13 | 0.677
B14 | 1.53
B15 | 0.57
B16 | 0.469
B17 | 1.88
B18 | 0.576
B19 | 0.672
B20 | 2.18
B21 | 0.541
B22 | 0.9
